Out of some 230,000 compounds screened, about 3,600 (1.6%) were called active. This list was built around the results that the source calls inconclusive (neither active nor inactive); the mix of calls is not that of the screen. Calls come from the whole dose curve; as a rule, active = well fitted inhibition curve with a large enough effect (not every such curve was filed as active); inconclusive = small, poorly fitted or top-dose-only effect, or another doubt; inactive = no such curve, though single readings can be large or run the other way. Where the call is inconclusive, the potency comes from a doubtful curve fit.
biological target: Lysine-specific demethylase 4E (Homo sapiens) (UniProt B2RXH2); experiment: qHTS Assay for Inhibitors of Human Jumonji Domain Containing 2E (JMJD2E); settings: JMJD2E catalytic domain, FDH-coupled NADH fluorescence (FDH is formaldehyde dehydrogenase); series mostly up to 57.1 µM; activity change, negative = inhibition: at the top concentration
Note: nearly all actives have a fitted effect of over 50% in size.
Potency is the fitted concentration of half-maximal effect; tags give direction and shape of the fitted curve.
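Throughout, for activity change, negative = inhibition: 0% = wells with enzyme and -100% = buffer wells without enzyme.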

UniProt B2RXH2, sequence (B2RXH2 whole entry, looked up, the tested form may be a part): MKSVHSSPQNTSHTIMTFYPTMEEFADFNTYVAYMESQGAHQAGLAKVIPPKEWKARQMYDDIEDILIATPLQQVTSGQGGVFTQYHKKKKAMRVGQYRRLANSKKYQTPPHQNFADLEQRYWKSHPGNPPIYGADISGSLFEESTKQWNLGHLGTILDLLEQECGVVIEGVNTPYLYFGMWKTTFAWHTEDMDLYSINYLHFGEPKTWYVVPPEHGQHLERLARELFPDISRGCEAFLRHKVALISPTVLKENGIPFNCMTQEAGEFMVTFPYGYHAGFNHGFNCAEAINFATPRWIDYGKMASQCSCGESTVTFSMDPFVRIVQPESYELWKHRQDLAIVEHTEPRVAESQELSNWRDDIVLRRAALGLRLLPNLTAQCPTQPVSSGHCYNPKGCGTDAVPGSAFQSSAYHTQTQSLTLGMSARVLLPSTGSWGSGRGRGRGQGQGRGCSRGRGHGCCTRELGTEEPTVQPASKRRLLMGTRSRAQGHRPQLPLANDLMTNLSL

| Compound | Potency | activity change, negative = inhibition |
| --- | --- | --- |
| O=C(Nc1ccc(-c2nc3ccccc3o2)cc1)c1cc(-n2cnnc2)ccc1Cl | inconclusive: 28.2 µM [inhibitor, partial curve] | – |
| COc1cc(/C=N/Nc2nc3ccccc3[nH]2)cc(OC)c1O | inconclusive: 28.2 µM [inhibitor, partial curve] | – |
| CN1CCSc2ccc(C(=O)Nc3cc(F)ccc3F)cc21 | inconclusive: 35.5 µM [inhibitor, partial curve] | – |
| COc1ccc2[nH]c(=O)c(CN(C(=O)NC3CCCCC3)C3CCCCC3)cc2c1 | inconclusive: 28.2 µM [inhibitor, partial curve] | – |
| O=C(NCCN1CCCCC1)c1c(O)c2ccccc2[nH]c1=O | inconclusive: 35.5 µM [inhibitor, single point] | – |
| CNC(=S)N(Cc1cc2cc(C)cc(C)c2[nH]c1=O)C1CCCC1 | inconclusive: 31.6 µM [inhibitor, single point] | – |
| CCN(CC)CCNc1cc(C)nc2c1C(=O)C(=O)C=C2N1CCCCC1 | inconclusive: 2 µM [inhibitor, full curve] | – |
| CCOC(=O)c1[nH]c2ccc(OCC)cc2c1NC(=O)CN1CCC2(CC1)OCCO2 | inconclusive: 35.5 µM [inhibitor, single point] | – |
| Cc1cc(C(=O)OCC(=O)Nc2cccc(S(N)(=O)=O)c2)c2ccccc2n1 | inconclusive: 17.8 µM [inhibitor, partial curve] | – |
| Cc1nc(N/N=C/c2ccccn2)sc1C | active: 12.6 µM | – |
| CN1C[C@@H]2C(c3ccc(C(F)(F)F)cc3)C3(c4cccnc4)CC2(C3)[C@H]1c1ccccc1 (stereo partly drawn) | inactive | – |
| CCN(CC)C1=C(Cl)C(=O)C(Cl)C12OCCO2 (stereo not drawn) | – | inactive: -3.12% |
| O=[N+]([O-])c1cc(C(F)(F)F)ccc1N1CCC(O)CC1 | – | inactive: 5.98% |
| Cc1csc(Nc2cccc3ccccc23)n1 | inconclusive: 35.5 µM [inhibitor, single point] | – |
| CCc1ccc(/C=C2/SC(N3CCOCC3)=NC2=O)cc1 | – | inactive: 0.661% |
| COc1ccc(CC(=O)OCc2cc3ccc(C)cc3[nH]c2=O)cc1 | inconclusive: 39.8 µM [inhibitor, single point] | – |
| OCCN1CCN(c2cc(-c3ccccc3)c3ccccc3n2)CC1 | inconclusive: 28.2 µM [inhibitor, partial curve] | – |
| CCC1CCCCN1C(=O)CSc1nnc(-c2c[nH]c3ccccc23)o1 (stereo not drawn) | – | inactive: -0.367% |
| COc1ccc(-c2cc(C(=O)Nc3cnn(Cc4ccccc4C)c3)no2)cc1OC | inconclusive: 25.1 µM [inhibitor, partial curve] | – |
| O=C(O)c1ccc(N(c2ccccc2)c2ccccc2)cc1 | inconclusive: 28.2 µM [inhibitor, partial curve] | – |
| N#Cc1c(-c2ccco2)cc(-c2ccc(F)cc2)nc1N | inconclusive: 31.6 µM [inhibitor, partial curve] | – |
| CC(C)C[C@H](N)c1nnc(S(=O)(=O)Cc2ccc(F)cc2)o1 | – | inactive: 0.188% |
| N#Cc1nc(-c2ccccc2Cl)oc1NCc1ccco1 | inconclusive: 3.55 µM [inhibitor, full curve] | – |
| Cc1cc(Br)c(OCc2ccc(C(=O)N/N=C3\CC4CC=CC34)cc2)c(Br)c1 (stereo not drawn) | inconclusive: 35.5 µM [inhibitor, single point] | – |
| Cc1cc[n+](-c2[nH]c(=O)sc2/C=N/N=C(\[O-])c2ccccc2)cc1 | inconclusive: 1.58 µM [inhibitor, full curve] | – |

| Compound | Potency | activity change, negative = inhibition |
| --- | --- | --- |
| COc1ccccc1/C=C/C=C1N=C(/C=C/c2ccc(Cl)cc2)OC/1=O | inconclusive: 39.8 µM [inhibitor, single point] | – |
| Cc1ccc(NC(=S)C2=C(O)c3sccc3N(C)S2(=O)=O)cc1 | inconclusive: 20 µM [inhibitor, partial curve] | – |
| COc1cccc(NC(=S)N(CCCN2CCN(C)CC2)Cc2ccco2)c1 | – | inactive: -4.71% |
| N#Cc1c(N2CCOCC2)nc(-c2ccco2)c2c1CCCC2 | inconclusive: 31.6 µM [inhibitor, partial curve] | – |
| CCOC(=O)c1c(C)oc2ccc(OC(=O)COc3c(F)c(F)c(F)c(F)c3F)cc12 | inconclusive: 39.8 µM [inhibitor, single point] | – |
| Cc1nc(C)c(C(=O)C2=C(O)C(=O)N(CCCN(C)C)C2c2ccco2)s1 (stereo not drawn) | – | inactive: -15.4% |
| O=C1CSC(c2nn(-c3ccccc3)cc2-c2cc3ccccc3oc2=O)N1Cc1ccco1 (stereo not drawn) | inconclusive: 35.5 µM [inhibitor, partial curve] | – |
| O=c1c(-n2cncn2)c[nH]n1-c1cccc(Cl)n1 | – | inactive: 0.325% |
| COc1ccccc1-n1cnnc1SCc1csc(-c2ccccc2)n1 | – | inactive: -1.02% |
| CC(=O)[C@]1(O)Cc2c(O)c3c(c(O)c2[C@@H](O[C@H]2C[C@H](N)[C@H](O)[C@H](C)O2)C1)C(=O)c1ccccc1C3=O | inconclusive: 14.1 µM [inhibitor, partial curve] | – |
| CCOc1cc(/C=N/Nc2ccc(C(=O)O)cc2)ccc1OC(=O)c1ccccc1C | – | inactive: -22.8% |
| CCOC(=O)/C(C#N)=C1/CCCCCN1C | – | inactive: 1.57% |
| CC(=O)N/N=C(\C)CC(=O)NC(C)(C)C | – | inactive: 13% |
| CCN(CC)C(=O)CSc1ncnc2sc(-c3ccccc3)cc12 | inconclusive: 35.5 µM [inhibitor, single point] | – |
| CCOC(=O)CSc1nc2ccc(N)cc2s1 | – | inactive: -13.9% |
| CCN(CC)S(=O)(=O)c1ccc2[nH]cc(C(=O)NCCCN3CCCCC3)c(=O)c2c1 | inconclusive: 35.5 µM [inhibitor, single point] | – |
| Cc1ccc(N2CCN(C(=S)c3ccc(-c4cccc([N+](=O)[O-])c4)o3)CC2)cc1 | inconclusive: 39.8 µM [inhibitor, single point] | – |
| O=c1cc(O)c2c(=O)n(-c3ccccc3)c3c(c2o1)CCCCCC3 | inconclusive: 35.5 µM [inhibitor, single point] | – |
| COc1ccc(-c2cc(=Nc3ccc(C)cc3)c3ccccc3o2)cc1 | inconclusive: 15.8 µM [inhibitor, partial curve] | – |
| O=C(O)CCN1CCc2ccccc21 | inconclusive: 35.5 µM [inhibitor, single point] | – |
| CCCOC(=O)c1ccc(Oc2c(-c3ccc(OC)cc3O)n[nH]c2C)cc1 | – | inactive: -9.65% |
| CCOC(=O)NN1C(=O)c2ccccc2NC1C (stereo not drawn) | inconclusive: 35.5 µM [inhibitor, partial curve] | – |
| O=C1c2ccccc2C(=O)N1CSc1ncccn1 | – | inactive: 5.45% |
| COc1ccc(OC)c(C(=O)COC(=O)CNC(=O)C2CCCCC2)c1 | – | inactive: 6.02% |
| Cn1ccc2cc(NC(=O)Nc3cccnc3)ccc21 | inconclusive: 31.6 µM [inhibitor, partial curve, poor fit] | – |

| Compound | Potency | activity change, negative = inhibition |
| --- | --- | --- |
| Cc1ccccc1Nc1nnc(C)c(=O)[nH]1 | – | inactive: 2.79% |
| O=C(CC1C(=O)NCCN1Cc1cccc(Oc2ccccc2)c1)NCCc1cscn1 (stereo not drawn) | inconclusive: 22.4 µM [inhibitor, single point] | – |
| COc1ccc2cc3cc(C(=O)NCCN4CCN(Cc5ccccc5)CC4)oc3nc2c1 | inconclusive: 3.16 µM [inhibitor, full curve] | – |
| c1ccc2nc(-c3ccc4c(c3)OCO4)ccc2c1 | inconclusive: 28.2 µM [inhibitor, partial curve] | – |
| COC(=O)c1c(NC(=O)c2ccc(OC(C)C)cc2)sc2c1CC(C)(C)NC2(C)C | inconclusive: 35.5 µM [inhibitor, partial curve] | – |
| Cc1cc(O)c(/C=N/Nc2ccc(F)cc2)c(=O)o1 | inconclusive: 28.2 µM [inhibitor, single point] | – |
| Cc1ccccc1NC(=O)c1c(C)[nH]c(=S)c(C#N)c1-c1ccco1 | – | inactive: -13.8% |
| CCOc1ccc2nc(Cl)c(/C=C/C(=O)c3ccco3)cc2c1 | inconclusive: 39.8 µM [inhibitor, single point] | – |
| COc1ccc(-c2[nH]nc3oc(=O)cc(C)c23)cc1 | inconclusive: 22.4 µM [inhibitor, partial curve] | – |
| COC(=O)c1[nH]c2cc(OC)ccc2c1NC(=O)c1c(F)cccc1F | inconclusive: 35.5 µM [inhibitor, single point] | – |
| OB(O)c1cc2ccccc2s1 | – | inactive: 13.5% |
| O=C(O)C(=O)/C(=C\c1ccccc1)c1ccc2ccccc2n1 | inconclusive: 25.1 µM [inhibitor, partial curve] | – |
| N=C1C(c2nc3ccccc3s2)=C(O)CN1C1CCC(O)CC1 (stereo not drawn) | inconclusive: 31.6 µM [inhibitor, single point] | – |
| CC(=O)c1cc(C(=O)N2CCc3c([nH]c4ccccc34)C2C2CCCCC2)[nH]n1 (stereo not drawn) | inconclusive: 31.6 µM [inhibitor, single point] | – |
| COc1ccc(S(=O)(=O)NC(C)(C)C)cc1-c1nnc2c3ccccc3c(C)nn12 | – | inactive: -17.7% |
| CCCN=C(C)C1=C(O)c2ccccc2C1=O | – | inactive: -0.336% |
| O=C(N/N=C/c1ccc([N+](=O)[O-])s1)c1ccccc1 | – | inactive: -3.75% |
| Cc1cc(=O)oc2c1c(C)nn2-c1ccc(Br)cc1 | inconclusive: 39.8 µM [inhibitor, single point] | – |
| Nc1nc(-c2ccccn2)nc(N)c1Cc1ccc(Cl)cc1Cl | – | inactive: -2.68% |
| COc1ccc(C(=O)N/C(=C\c2ccco2)C(=O)NCCCn2ccnc2)cc1 | – | inactive: -0.0138% |
| CC(=O)Nc1ccc(-c2nc(C)c(C(C)=O)n2O)cc1 | inconclusive: 35.5 µM [inhibitor, single point] | – |
| O=[N+]([O-])c1cccc(N/N=C/c2cccc(O)c2O)c1 | active: 14.1 µM | – |
| Cc1cccc(C(=O)Nc2ccccc2-c2nnn(CC(=O)Nc3ccc4c(c3)OCCO4)n2)c1 | inconclusive: 28.2 µM [inhibitor, single point] | – |

— PubChem BioAssay AID2147 (National Center for Advancing Translational Sciences (NCATS), 2009)
